Test results: ChEMBL document CHEMBL4888484, “Replenishing the malaria drug discovery pipeline: Screening and hit evaluation of the MMV Hit Generation Library 1 (HGL1) against asexual blood stage Plasmodium falciparum ,using a nano luciferase reporter read-out” (2022)
Hit rate of the full screen: of about 150,000 compounds, about 540 (0.36%) showed an effect of 50% or more. Some of the results follow.

What follows are compounds tested on Plasmodium falciparum (assay: Primary screen in NF54 nanoGlo assay, in single point, at 2uM, 72h; a lower Z score goes with more inhibition). Settings: timepoint 72 hour.
Assay type: functional, Erythrocyte

Compound | % Inhibition | Z score
Cc1ccccc1NC(=O)C1(N2C[C@@H]3C[C@@H](C2)c2cccc(=O)n2C3)CCC(C)CC1 (stereo partly drawn) | -9% | 1.14
CCc1cnc(C)nc1N1C[C@H]2c3ccccc3OC[C@@]2(C(=O)O)C1 | -7% | 0.94
O=C(N[C@@H]1[C@@H]2CCO[C@@H]2[C@H]1N1CCCCC1)c1ccon1 | 1% | -0.2
C[C@@H](Cc1ccc(F)cc1)NCC(C)(C)C(N)=O | -4% | 0.56
C[C@@H](C(=O)N1CCC2(CC1)OCCO2)n1nc(-c2ccccc2)c2cc(Cl)ccc21 | 1% | -0.25
O=C(Cc1noc2ccccc12)NC1CCN2CCCCC12 (stereo not drawn) | 0% | 0.06
O=C1N(C2CCCC2)CCC[C@@]12CCN(Cc1ncccn1)C2 | 2% | -0.29
COc1cccc(C[C@H](C)NC(=O)N(C)CC2CCN(C)CC2)c1 | 4% | -0.43
c1cc(CN2CCO[C@]3(CNCCOC3)C2)cs1 | 12% | -1.5
Cn1c(=O)oc2c(C(=O)Nc3cc(C4CCC4)nn3-c3ccccc3)cccc21 | -6% | 0.73
CC(C)(C)c1nn(Cc2nc(-c3ccco3)no2)c(=O)o1 | -7% | 1.04
CC1CC1C(=O)N1CCC(S(=O)(=O)F)C1 (stereo not drawn) | -7% | 0.88
CC(C)(C)c1nnc2n1CCN(C(=O)c1ccc3[nH]c(=O)oc3c1)C2 | 21% | -2.65
COc1ccccc1NC(=O)N1C[C@@H]2C[C@H](C1)c1c(-c3ccccc3F)ccc(=O)n1C2 | 8% | -0.9
CNC(=O)c1ccc(CN2CC(C(=O)c3ccc(F)cc3)C2)cc1 | -9% | 0.87
CC1CCCC2CCCN(Cc3nc4c(cnn4C)c(=O)[nH]3)C12 (stereo not drawn) | -8% | 0.94
CCC(CC)C(=O)NC[C@H]1C[C@@H]2CCN1C[C@@H]2c1cc(-c2ccco2)nc(C)n1 | 19% | -2.17
COc1cc(C[C@H](C)NCc2cc(NC(=O)c3ccccn3)cc(C(=O)N(C)C)c2)ccc1O | -18% | 3.24
CN1CCC2OCCN(c3ncccc3C#N)C2C1 (stereo not drawn) | -4% | 0.73
CCn1cc(C(=O)Nc2ccc3c(c2)CNCC3)cn1 | -13% | 2
O=C(COc1ccccc1)N1CCCCC[C@@H]1CN1CCCC1 | 1% | -0.2

Compound | % Inhibition | Z score
CCCn1nnnc1CN1CCN2CCC[C@H]2C1 | 0% | -0.04
COC1CCC(NC2CCCN(C(=O)Oc3ccccc3)CC2)C1 (stereo not drawn) | -9% | 1.33
CCOC(=O)CN1CCCC2(C1)OCCO2 | -11% | 1.29
CCN1CCC(N(C)c2ccc3nnc(C(F)(F)F)n3n2)CC1 | -13% | 1.74
COc1ccc2c(c1)c(C(=O)N[C@H]1CCOC(C)(C)C1)cn2C(C)C | -11% | 1.41
Cc1ccc(O[C@H]2CCCN(S(=O)(=O)c3ccc4oc(=O)[nH]c4c3)C2)nn1 | -9% | 0.99
CN(C)[C@H]1[C@@H]2CC[C@H]1CN(Cc1ccc3ncccc3c1)C2 | -2% | 0.27
O=C(CN1CC[C@@]2(CCc3ccccc32)C1)Nc1cccnn1 | 2% | -0.28
COc1ccc(Br)cc1[C@H]1N(c2cc(C)on2)C(=O)[C@@H]2CCCN21 | -7% | 0.93
Nc1cccc(C(=O)NC[C@@H]2CCCN3CCCC[C@H]23)n1 | -11% | 1.55
CCCc1ccc(-c2c(C#N)c(N)nc3c2CNCC3)o1 | 4% | -0.68
O=C(c1ccc2oc(=O)[nH]c2c1)N1CCC[C@H]1C(F)(F)F | -4% | 0.52
COc1cccc2c1OC1(C(=O)O)CC2Nc2[nH]nc(-c3ccccc3)c21 (stereo not drawn) | -6% | 0.92
Cn1cc(CCN2CCN(c3ccccc3Cl)CC2)cn1 [ENPIPRAZOLE] | -4% | 0.36
c1nc(NC[C@H]2CCCO2)ncc1CN1CCOC2(CCCC2)C1 | -22% | 1.97
O=C(NC1CCCC1)C12CCCN1CCC2 | -1% | 0.21
O=C(c1nc(=O)[nH][nH]1)N1C2CCC1c1ccccc12 | -4% | 0.66
Cc1nc(CC(=O)N2C[C@@H]3CC[C@H]2CN(Cc2c(C)noc2C)C3)cs1 | -4% | 0.68
CC1CC(C)(C)CC1NCC1CCC(O)C1 (stereo not drawn) | -10% | 1.28
O=C1NC(=O)C2(C(=O)N1)C(c1cccc(Br)c1)NC(=O)NC2c1cccc(Br)c1 (stereo not drawn) | 4% | -0.44
CCN1C(=O)N(CC(N)=O)C(=O)C12CCNCC2 | 4% | -0.49

Compound | % Inhibition | Z score
c1ccc(N2CCN(CC34CCC(CC3)N4)CC2)cc1 | -5% | 0.96
C[C@H]1CN(C)Cc2c1nc(N)c(C#N)c2-c1cccs1 | -14% | 1.66
C=C[C@H]1OCC[C@@H]1C(=O)N1CCC(c2n[nH]c(=O)o2)CC1 | -5% | 0.68
Cc1cccc([C@H](C)NCC(=O)N2CCC3(CC2)OCCO3)c1C | -16% | 1.57
COc1ccccc1OCC(=O)N1CC(N2CCC(OC)CC2)C1 | -3% | 0.44
Cc1nnc(CNC(C)C(C)c2ccccc2)o1 (stereo not drawn) | -8% | 0.96
CCN1CCC2CCC(C1)N2c1cc(C)nc(COC)n1 (stereo not drawn) | -11% | 0.99
CC1(C)C[C@@H](CNC(=O)c2cccc3oc(=O)[nH]c23)CCO1 | 4% | -0.71
Cc1ccccc1C(=O)N(Cc1cccc(F)c1)c1ccc(CC(=O)N2CCN(C)CC2)cc1 | -1% | 0.17
Cc1ccc2oc(=O)n(C3CCN(C(=O)c4cccc(Cl)c4Cl)CC3)c2c1 | 18% | -2.5
O=C(CN1C2CCC1c1ccccc12)Nc1ccc2c(c1)OCO2 | -7% | 1.07
C[C@H]1CCCCN1C(=O)CN1CCN(C(=O)Cc2ccon2)CC1 | 1% | -0.15
CCC(CC)c1cc([C@H]2CN3CC[C@H]2C[C@@H]3CO)nc(-c2ccncc2)n1 | 25% | -2.22
CCN1CCN2c3cccc(Cl)c3CC3(C(=O)NC(=O)N(C(C)(C)C)C3=O)C2C1 (stereo not drawn) | -4% | 0.68
CC(=O)N1CCC(CN(C)C(=O)NC(C)Cc2ccc(C)cc2C)C1 (stereo not drawn) | -6% | 0.82
Cc1cccc([C@@H]2c3cccn3-c3ccccc3CN2C(=O)Nc2ccc(C)cc2Cl)c1 | -11% | 1.39
COc1cccc([C@H]2CN(C(=O)CC3CCCC3)[C@@H]3C4CCN(CC4)[C@H]23)c1 | -7% | 0.82
Cn1cc(CN2C[C@@H]3C[C@H](C2)c2ccc(-c4cccnc4)c(=O)n2C3)c2ccccc21 | 23% | -2.68
CCCn1c(-c2cccc(C(=O)N3CCC4(CC3)OCCO4)c2)nc2cccnc21 | -22% | 2.95
COc1ccc(C(=O)N2[C@H]3CC[C@@H]2c2cnc(C)nc2C3)cc1OC | -15% | 2.11
Cc1cc(N2CCC3CCC(C2)N3C)nc(C2CC2)n1 (stereo not drawn) | -6% | 1.1

Compound | % Inhibition | Z score
CO[C@@H](Cn1cc(C(N)=O)c(-c2ccccc2)n1)C1CCCC1 | -5% | 0.97
CCc1nc(CN2CCN(C(C)C)[C@@H](C)C2)n[nH]1 | -9% | 1.72
Cc1ccc2c(c1)[C@H]1CN(C)CC[C@H]1N2C(=O)CCc1cnn(C)c1 | -16% | 1.71
COCCN(CCOC)C(=O)CCc1ccc(S(=O)(=O)F)cc1 | -8% | 0.92
Clc1cccc(C2(N[C@H]3CCOC3)CC2)c1 | -4% | 0.52
N[C@H]1C[C@@H]1c1ccc(Cl)cc1Cl | 10% | -1.12
COCc1nc(NCCc2c[nH]cn2)c2cnn(C)c2n1 | -12% | 1.5
CN(CC1CCCCC1O)C(=O)NCC1CN2CCN1CC2 (stereo not drawn) | 11% | -2.02
Cc1ccnc(C(C)NC(C)Cc2cccc(O)c2)c1 (stereo not drawn) | -8% | 0.91
c1ccc(-c2nnc(N3[C@@H]4CC[C@H]3[C@H]3CNC[C@H]34)s2)cc1 | -11% | 2.2
O=C(Cc1ccsc1)N1CC(CF)C1 | -5% | 1.01
CCOc1ccc(CN2CCN(CC3CC3)CC2)c(OCC)c1C | -6% | 0.72
CN(C)CC(=O)N1C[C@@H]2C[C@H](C1)c1c(-c3ccc4ccccc4c3)ccc(=O)n1C2 | -4% | 0.57
C[C@H]1CN(Cc2cccnc2)CCC1(F)F | -17% | 2.51
Cc1ccc2nc(NC(=O)[C@@H]3CCCN3C(=O)Oc3ccccc3)sc2c1 | 4% | -0.79
O=C(c1ccsn1)N1CCC(c2n[nH]c(=O)o2)CC1 | -8% | 1.59
O=C(c1ccccc1)N1C[C@H](c2ccc3c(c2)OCO3)[C@@H]2[C@H]1C1CCN2CC1 | -2% | 0.23
Cc1ccc(OCc2c(C(=O)NC3CCCCC3)c(=O)cc(C)n2CCN2CCOCC2)cc1 | -10% | 1.25
Cc1nn(C)c2c1N(C(=O)C1C(C)(C)C1(C)C)CCO2 | -6% | 0.87
Cc1ccc2c(c1)C(c1ccccc1)=N[C@@H](O)C(=O)N2 | 5% | -0.65
Cc1cccc(CN2CCN3C(=O)N(C)C[C@H]3C2)n1 | 18% | -2.1
